Measured values reported in PubChem BioAssay (NCATS).
Inconclusive results, whose numbers are uncertain, are shown with a selection of clear calls. Potencies of inconclusive entries are doubtful fits and often do not repeat. Activity calls are given as the source filed them. Calls come from the whole dose curve; as a rule, active = well fitted cell-killing curve with a large enough effect; inconclusive = small, poorly fitted or top-dose-only effect, or effect the other way; inactive = flat fitted curve, though single readings scatter.
Potency is the fitted concentration of half-maximal effect; tags give direction and shape of the fitted curve.

What follows are compounds tested on PA-1 (assay: Primary qHTS to identify gynecologic anti-cancer compounds using libraries of approved drugs and bioactive compounds (AID 1345084; note: nearly all actives have a fitted effect of over 55% in size)). Conditions: Gynecologic cancer cell panel viability, ATPlite luminescence, 48 h; series mostly up to 57.5 µM.
Summary of the method: (§1)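 Five-concentration response, 48 h; readout is ATP-driven luciferase luminescence.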
`CN1CCN(c2ccc(OC(F)(F)F)c(Nc3ncc4c(n3)-c3c(c(C(N)=O)nn3CCO)CC4)c2)CC1` was tested, and the Potency was active: 0.282 µM.
`O=C(Nc1ccc(Cl)cc1F)c1ccccc1O` was tested, and the Potency was inconclusive: 31.6 µM [cytotoxic, single point].
With `N#Cc1cc(-c2ccnc(Nc3ccc(N4CCOCC4)cc3)n2)ccc1OC1CCOCC1` the Potency was inconclusive: 7.08 µM [cytotoxic, full curve, poor fit].
In the case of `C[C@H](NC(=O)C(C)(C)Oc1ccc(C(F)(F)F)cn1)[C@@H](Cc1ccc(Cl)cc1)c1cccc(C#N)c1`, the Potency is reported as “inactive”.
`COc1cc([C@H]2O[C@H](c3cc(OC)c4c(c3)OCO4)[C@H](C)[C@H]2C)cc(OC)c1OC` was tested, and the Potency was inconclusive: 2.51 µM [cytotoxic, partial curve].
In the case of `CC(C)CCNC(=O)c1ccc2c(c1)nc(Nc1n[nH]c3ccc(-c4ccccc4OC(F)(F)F)cc13)n2C1CCC(O)CC1` (stereo not given), the Potency is reported as “inactive”.
With `CC(=O)Nc1ccc(NC(=S)NC(=O)c2ccc(C(C)(C)C)cc2)cc1` the Potency was active: 10 µM.
In the case of `COCCOCCOc1ccc(C2=N[C@@](C)(C(=O)O)CS2)c(O)c1`, the Potency is reported as inconclusive: 44.7 µM [cytotoxic, partial curve, poor fit].
With `C=C(C(=O)O)C1CC2=C(C)C(=O)CC2C(C)CC1O` (stereo not given) the Potency was inconclusive: 39.8 µM [cytotoxic, single point].
For `COc1cc(C[C@H]2C(=O)OC[C@@H]2Cc2ccc(OC)c(OC)c2)ccc1O`, the Potency was “inactive”.
In the case of `C=C1C(=O)OC2C(OC(=O)C=C(C)C)C(C)=C3C(=O)C=C(C)C3C(O)C12` (stereo not given), the Potency is reported as inconclusive: 28.2 µM [cytotoxic, single point].
In the case of `O=C(Nc1ccc(-c2ccnc(Nc3ccc(N4CCOCC4)cc3)n2)cc1)C1CCCN1` (stereo not given), the Potency is reported as inconclusive: 39.8 µM [cytotoxic, single point].
For `CC1(C)C2CC(OC3OC(COC4OCC(O)(CO)C4O)C(O)C(O)C3O)C1(C)CC2O` (stereo not given), the Potency was inconclusive: 3.55 µM [cytotoxic, single point].
For `CCN1CCN(Cc2ccc(NC(=O)c3ccc(C)c(Oc4ccnc5[nH]ccc45)c3)cc2C(F)(F)F)CC1`, the Potency was inconclusive: 10 µM [cytotoxic, single point].
With `C=CC(=O)N1CCC(Oc2cc3c(Nc4ccc(Cl)c(Cl)c4F)ncnc3cc2OC)CC1` the Potency was inconclusive: 39.8 µM [cytotoxic, single point].
For `NC(=O)c1ccccc1Nc1ccnc(Nc2cccc(O)c2)n1`, the Potency was inconclusive: 2.82 µM [cytotoxic, full curve].
In the case of `O=C(Nc1nc2cc(C(F)(F)F)cc(NC3CC3)n2n1)c1cccnc1`, the Potency is reported as active: 7.08 µM.
For `CC(C)(O)C1CC(=O)C2(C)C(CCC3(C)C(c4ccoc4)OC(=O)C4OC432)C12CCC(=O)OC2` (stereo not given), the Potency was inconclusive: 12.6 µM [cytotoxic, single point].
For `CC(=O)OC[C@H]1O[C@@H](n2ncc(=O)[nH]c2=O)[C@H](OC(C)=O)[C@@H]1OC(C)=O`, the Potency was inconclusive: 7.08 µM [cytotoxic, partial curve, poor fit].
With `CC(=O)C1=C(O)C2c3c[nH]c4cccc(c34)CC2C(C)(C)N(C)C1=O` (stereo not given) the Potency was inconclusive: 25.1 µM [cytotoxic, single point].
With `CCOC(=O)c1cccc(CNc2ccc(N(C)C(=O)Nc3ccccc3)cc2)c1` the Potency was inconclusive: 15.8 µM [cytotoxic, single point].
`Cc1noc(C)c1-c1cc(O)cc(C(O)c2ccccc2)c1` (stereo not given) was tested, and the Potency was inconclusive: 17.8 µM [cytotoxic, single point].
In the case of `CC(C)(C)Nc1nc(Nc2ccc(C(N)=O)cc2)cc(N)c1C#N`, the Potency is reported as inconclusive: 6.31 µM [cytotoxic, full curve, poor fit].
In the case of `O=C(NCc1ccc(Oc2ccccc2)cc1)c1nc(-c2cc(Br)c(O)c(Br)c2)no1`, the Potency is reported as “inactive”.
`CC(=O)N1CCN(CCOc2ccc(C3CCN(C4=Nn5c(nnc5C(F)(F)F)CC4)CC3)cc2)CC1` was tested, and the Potency was inconclusive: 8.91 µM [cytotoxic, partial curve, poor fit].
In the case of `C#CCN(Cc1cc2c(=O)[nH]c(C)nc2cc1Br)c1ccc(C(=O)NCc2cccnc2)cc1`, the Potency is reported as inconclusive: 100 µM.
`COc1ccc2nc(-c3cc(OC)c(OC)c(OC)c3)cc(C(=O)NCC(=O)Nc3ccc(C(C)=O)cc3)c2c1` was tested, and the Potency was inconclusive: 28.2 µM [cytotoxic, single point].
For `Cc1cc(N(C)C)ccc1-c1nc2ccc(-c3nc4ccc(N5CCN(C)CC5)cc4[nH]3)cc2[nH]1`, the Potency was inconclusive: 28.2 µM [cytotoxic, single point].

These compounds were tested on SKOV3 in the same assay as above. Conditions: Gynecologic cancer cell panel viability, ATPlite luminescence, 48 h; series mostly up to 57.5 µM.
Summary of the method: as §1
With `COc1cccc(-c2cc(F)ccc2C2Cc3nc(N)nc(C)c3C(=O)N2)n1` (stereo not given) the Potency was inconclusive: 0.562 µM [cytotoxic, full curve, poor fit].
For `CN1CCN(c2ccc(OC(F)(F)F)c(Nc3ncc4c(n3)-c3c(c(C(N)=O)nn3CCO)CC4)c2)CC1`, the Potency was inconclusive: 1.26 µM [cytotoxic, single point].
`CCNC(=O)c1noc(-c2cc(Cl)c(O)cc2O)c1-c1ccc(OC)cc1` was tested, and the Potency was active: 2.82 µM.
`O=C(Nc1ccc(Cl)cc1F)c1ccccc1O` was tested, and the Potency was inconclusive: 31.6 µM [cytotoxic, partial curve, poor fit].
With `C[C@@H](N[C@H]1CCCC[C@@H]1NC(=O)c1ccc(Cl)cc1)c1cccc2ccccc12` the Potency was active: 31.6 µM.
In the case of `CN1CCN(Cc2ccc(NC(=O)Cc3ccc(Oc4cc(NC(=O)C5CC5)ncn4)cc3)cc2C(F)(F)F)CC1`, the Potency is reported as inconclusive: 2.82 µM [cytotoxic, partial curve, poor fit].
With `CCN(CC)CCN(Cc1ccc(-c2ccc(C(F)(F)F)cc2)cc1)C(=O)Cn1c(SCc2ccc(F)cc2)nc(=O)c2c1CCC2` the Potency was active: 7.94 µM.
In the case of `N#Cc1cc(-c2ccnc(Nc3ccc(N4CCOCC4)cc3)n2)ccc1OC1CCOCC1`, the Potency is reported as inconclusive: 0.708 µM [cytotoxic, full curve, poor fit].
With `C[C@H](NC(=O)C(C)(C)Oc1ccc(C(F)(F)F)cn1)[C@@H](Cc1ccc(Cl)cc1)c1cccc(C#N)c1` the Potency was inconclusive: 39.8 µM [cytotoxic, single point].
`COc1cc([C@H]2O[C@H](c3cc(OC)c4c(c3)OCO4)[C@H](C)[C@H]2C)cc(OC)c1OC` was tested, and the Potency was inconclusive: 11.2 µM [cytotoxic, single point].
`CC(C)CCNC(=O)c1ccc2c(c1)nc(Nc1n[nH]c3ccc(-c4ccccc4OC(F)(F)F)cc13)n2C1CCC(O)CC1` (stereo not given) was tested, and the Potency was “inactive”.
`CC(=O)Nc1ccc(NC(=S)NC(=O)c2ccc(C(C)(C)C)cc2)cc1` was tested, and the Potency was inconclusive: 5.01 µM [rising, single point].
With `COCCOCCOc1ccc(C2=N[C@@](C)(C(=O)O)CS2)c(O)c1` the Potency was inconclusive: 39.8 µM [cytotoxic, single point].
With `C=C(C(=O)O)C1CC2=C(C)C(=O)CC2C(C)CC1O` (stereo not given) the Potency was “inactive”.
In the case of `COc1cc(C[C@H]2C(=O)OC[C@@H]2Cc2ccc(OC)c(OC)c2)ccc1O`, the Potency is reported as inconclusive: 3.98 µM [cytotoxic, partial curve, poor fit].
In the case of `N#CC(CCCN1CCC(O)(c2ccc(Cl)cc2)CC1)(c1ccccc1)c1ccccc1`, the Potency is reported as inconclusive: 22.4 µM [cytotoxic, single point].
In the case of `C=C1C(=O)OC2C(OC(=O)C=C(C)C)C(C)=C3C(=O)C=C(C)C3C(O)C12` (stereo not given), the Potency is reported as active: 12.6 µM.
With `CC1(C)C2CC(OC3OC(COC4OCC(O)(CO)C4O)C(O)C(O)C3O)C1(C)CC2O` (stereo not given) the Potency was inconclusive: 3.16 µM [cytotoxic, single point].
With `CCN1CCN(Cc2ccc(NC(=O)c3ccc(C)c(Oc4ccnc5[nH]ccc45)c3)cc2C(F)(F)F)CC1` the Potency was inconclusive: 28.2 µM [cytotoxic, partial curve, poor fit].
`C=CC(=O)N1CCC(Oc2cc3c(Nc4ccc(Cl)c(Cl)c4F)ncnc3cc2OC)CC1` was tested, and the Potency was inconclusive: 10 µM [cytotoxic, partial curve, poor fit].
With `NC(=O)c1ccccc1Nc1ccnc(Nc2cccc(O)c2)n1` the Potency was inconclusive: 3.16 µM [cytotoxic, full curve].
For `O=C(Nc1nc2cc(C(F)(F)F)cc(NC3CC3)n2n1)c1cccnc1`, the Potency was inconclusive: 7.94 µM [cytotoxic, partial curve, poor fit].
In the case of `CCCCCCCCC(=O)N[C@H](CN1CCCC1)[C@H](O)c1ccc2c(c1)OCCO2`, the Potency is reported as inconclusive: 25.1 µM [cytotoxic, single point].
`CCOC(=O)c1cccc(CNc2ccc(N(C)C(=O)Nc3ccccc3)cc2)c1` was tested, and the Potency was active: 14.1 µM.
In the case of `Cc1noc(C)c1-c1cc(O)cc(C(O)c2ccccc2)c1` (stereo not given), the Potency is reported as active: 15.8 µM.
With `CC(C)(C)Nc1nc(Nc2ccc(C(N)=O)cc2)cc(N)c1C#N` the Potency was inconclusive: 39.8 µM [cytotoxic, single point].
For `O=C(NCc1ccc(Oc2ccccc2)cc1)c1nc(-c2cc(Br)c(O)c(Br)c2)no1`, the Potency was “inactive”.
For `CC(=O)N1CCN(CCOc2ccc(C3CCN(C4=Nn5c(nnc5C(F)(F)F)CC4)CC3)cc2)CC1`, the Potency was inconclusive: 10 µM [cytotoxic, partial curve, poor fit].
`C#CCN(Cc1cc2c(=O)[nH]c(C)nc2cc1Br)c1ccc(C(=O)NCc2cccnc2)cc1` was tested, and the Potency was inconclusive: 3.16 µM.
In the case of `COc1ccc2nc(-c3cc(OC)c(OC)c(OC)c3)cc(C(=O)NCC(=O)Nc3ccc(C(C)=O)cc3)c2c1`, the Potency is reported as inconclusive: 39.8 µM [cytotoxic, single point].
With `COc1cc(-c2cc(-c3cccc(O)c3)cnc2N)cc(OC)c1OC` the Potency was inconclusive: 39.8 µM [cytotoxic, single point].
`Cc1cc(N(C)C)ccc1-c1nc2ccc(-c3nc4ccc(N5CCN(C)CC5)cc4[nH]3)cc2[nH]1` was tested, and the Potency was inconclusive: 35.5 µM [cytotoxic, single point].
